Measured values reported in PubChem BioAssay AID624417 (National Center for Advancing Translational Sciences (NCATS), 2012).
Out of some 410,000 compounds screened, about 6,400 (1.6%) were called active. Inconclusive results, whose numbers are uncertain, are shown with a selection of clear calls. Calls come from the whole dose curve; as a rule, active = well fitted inhibition curve with a large enough effect; inconclusive = small, poorly fitted or top-dose-only effect; inactive = no such curve, though single readings can be large or run the other way. Potencies of inconclusive entries are left out as doubtful fits.

target: Glucagon-like peptide 1 receptor (Homo sapiens) (UniProt P43220); assay: qHTS of GLP-1 Receptor Inverse Agonists (Inhibition Mode); conditions: HEK293 GLP-1R CRE-luciferase, luminescence, 24 h, GLP-1R form is constitutively active; series mostly up to 38.3 µM; note: nearly all actives have a fitted effect of over 55% in size
UniProt P43220, sequence (P43220 whole entry, looked up): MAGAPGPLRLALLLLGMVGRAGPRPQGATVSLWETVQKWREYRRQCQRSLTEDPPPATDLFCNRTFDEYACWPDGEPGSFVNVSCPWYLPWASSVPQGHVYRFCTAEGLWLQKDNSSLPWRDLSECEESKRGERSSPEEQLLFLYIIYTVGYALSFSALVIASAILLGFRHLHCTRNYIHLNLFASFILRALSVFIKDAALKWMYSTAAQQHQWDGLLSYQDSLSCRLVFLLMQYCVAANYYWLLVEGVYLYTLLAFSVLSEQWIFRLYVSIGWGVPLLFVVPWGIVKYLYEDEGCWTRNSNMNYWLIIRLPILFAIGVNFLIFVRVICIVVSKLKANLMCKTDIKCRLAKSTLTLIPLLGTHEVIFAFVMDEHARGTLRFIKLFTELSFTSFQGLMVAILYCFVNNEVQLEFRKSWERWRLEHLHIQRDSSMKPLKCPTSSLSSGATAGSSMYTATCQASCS
Outline: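 Luminescence readout: a drop in cAMP-driven luciferase signal flags inverse agonism at a constitutively active GLP-1R stably expressed in HEK293. Compound exposure lasted 24 hr at 37 deg C, 5% CO2.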
Potency is the fitted concentration of half-maximal effect; tags give direction and shape of the fitted curve.

Row | SMILES | Potency
1 | CC(C)(C)NC(=O)CSc1nc(-c2ccccc2)c(-c2ccccc2)[nH]1 | inconclusive [inhibitor, partial curve, poor fit]
2 | COCc1cc(C)nc(SCc2ccc(Cl)cc2)c1C#N | inconclusive [inhibitor, single point]
3 | O=S(=O)(c1ccc(F)cc1)N1CCN(C(=S)NCc2ccccc2)CC1 | inconclusive [inhibitor, single point]
4 | O=C(Nc1ccccc1)Nc1ccc(Br)c(Cl)c1 | inconclusive [inhibitor, partial curve, poor fit]
5 | CC1=C(C(=O)Nc2ccccc2C)C(c2cccs2)NC(=S)N1 (centres undefined) | inactive
6 | OCCOCCNc1ncnc2c1cnn2-c1ccc(Cl)cc1 | inconclusive [inhibitor, single point]
7 | COc1ccc(C(=O)OCC(=O)c2ccc[nH]2)c(OC)c1 | inactive
8 | Cc1cc(=O)oc(C)c1C(=O)OCC(=O)c1ccc2ccccc2c1 | inconclusive [inhibitor, single point]
9 | CN(C)CCCNc1nc(-c2ccc(Cl)cc2)nc2ccccc12 | inconclusive [inhibitor, partial curve, poor fit]
10 | CCCCC(CC)CNC(=O)c1[nH]c(C)c(C(C)=O)c1C (centres undefined) | inconclusive [inhibitor, single point]
11 | CCC(=O)Nc1cc(NC(=O)CSc2ncc(-c3ccc(F)cc3)n2Cc2ccco2)ccc1C | inconclusive [inhibitor, partial curve, poor fit]
12 | COc1ccc(N=C2NC(=O)/C(=C/c3ccc(O)c(OC)c3)S2)cc1 | inactive
13 | CC(C)(C)N(C=C(Cl)Cl)C(=O)NC1CCCCC1 | inactive
14 | CC1CCC/C(=C(\C#N)c2nc(-c3cc4ccccc4oc3=O)cs2)C1 (centres undefined) | inactive
15 | CC1CCC2(CC1)NC(=O)N(CC(=O)NCc1ccc(Cl)cc1)C2=O (centres undefined) | inconclusive [inhibitor, partial curve, poor fit]
16 | O=C(C1CCN(C2CCN(C/C(Cl)=C/c3ccccc3)CC2)CC1)N1CCOCC1 | inconclusive [inhibitor, partial curve, poor fit]
17 | O=C(C1CCCN(Cc2ccccc2C(F)(F)F)C1)N1CCCCC1 (centres undefined) | inconclusive [inhibitor, single point]
18 | COC(=O)N/N=C/c1cn(CCOc2cccc(OC)c2)c2ccccc12 | inconclusive [inhibitor, single point]
19 | COc1ccc(CNC(=O)C(c2ccncc2)N(C(=O)Cc2cccs2)c2cccc(C)c2)cc1 (centres undefined) | inconclusive [inhibitor, partial curve, poor fit]
20 | COc1ccc(-c2noc(N3CCC(C(=O)N(C)c4ccccc4C)CC3)n2)cc1 | inconclusive [inhibitor, partial curve, poor fit]

Row | SMILES | Potency
21 | C=CCNc1nc(NCc2ccc(NC(C)=O)cc2)c2sc(-c3ccccc3)cc2n1 | inconclusive [inhibitor, single point]
22 | COC(=O)C1=C(N)c2c(F)cccc2C1(C#N)c1ccccc1 (centres undefined) | inconclusive [inhibitor, single point]
23 | Cc1cccc(C(=O)N(CCc2ccccc2)Cc2ccccc2)c1[N+](=O)[O-] | active: 3.16 µM
24 | COc1ccc(N2CCN(C(=O)c3cn(C4CCCC4)c(=O)c4c3c3ccccc3n4C)CC2)cc1 | inconclusive [inhibitor, partial curve, poor fit]
25 | Cc1cc(C)cc(NC(=S)N(Cc2ccc(Br)cc2)Cc2ccc(C(=O)O)cc2)c1 | inconclusive [inhibitor, single point]
26 | COC(=O)CSc1nc(SCc2ccc(C)cc2)nc2c1CCCC2 | inconclusive [inhibitor, single point]
27 | Cc1ccc(NC(=S)NCc2ccc3c(c2)OCO3)cc1 | inconclusive [inhibitor, partial curve, poor fit]
28 | Cc1cccc([C@@H]2[C@@H]3C(=O)N(Cc4ccccc4)C(=O)[C@@H]3[C@]3(C)C(=O)N(c4ccc(C(F)(F)F)cc4)C(=O)N23)c1 | inconclusive [inhibitor, partial curve, poor fit]
29 | O=C(O)CC(NC(=O)C1CCCCC1)c1cc([N+](=O)[O-])ccc1Cl (centres undefined) | inactive
30 | Cc1cc(NC(=O)CCCn2c(C)c3cnn(-c4ccccc4)c(=O)c3c2C)ccc1Br | inconclusive [inhibitor, single point]
31 | COc1ccc(NC(=O)CC(c2ccc(F)cc2)c2ccc(OC(C)C)cc2)cc1 (centres undefined) | inconclusive [inhibitor, partial curve, poor fit]
32 | CCN(CCCNC(=O)CN1C(=O)COc2ccc(S(=O)(=O)N3CCC(C)CC3)cc21)Cc1ccccc1 | inconclusive [inhibitor, partial curve, poor fit]
33 | COc1ccc(CNC(=O)C2CCN(c3nc(-c4ccccc4)nc4c3CCC4)CC2)cc1 | inconclusive [inhibitor, partial curve, poor fit]
34 | O=C(/C=C/c1ccco1)Nc1ccccc1N1CCCC1 | inconclusive [inhibitor, partial curve, poor fit]
35 | [O-][N+](=C(c1ccccc1)c1ccccc1)c1ccccc1 | inconclusive [inhibitor, partial curve, poor fit]
36 | CCOc1ccccc1NC(=O)CN1C(=O)CC(c2ccco2)Sc2ccccc21 (centres undefined) | inconclusive [inhibitor, partial curve, poor fit]
37 | CCc1ccc(-c2cc3c(=O)n(CC(=O)NCCCN4CCN(Cc5ccccc5)CC4)nc(C)n3n2)cc1 | inconclusive [inhibitor, full curve, poor fit]
38 | CCOc1ccccc1NC(=S)NC(=O)C1CC1 | inconclusive [inhibitor, single point]
39 | N#CC(=C1CCCC1)c1nc(-c2ccccc2O)cs1 | inconclusive [inhibitor, single point]
